The values that follow come from ChEMBL document CHEMBL1156829.

In all, about 5,400 compounds were measured (“IFI”: median about 2, highest 2% from about 22 on). Some of the results follow.

This assay is described as follows: NOVARTIS: Inhibition Frequency Index (IFI) - the number of HTS assays where a compound showed > 50% inhibition/induction, expressed as a percentage of the number of assays in which the compound was tested. The format is functional.
In the case of `CCOC(=O)C1=C(C)NC2=C(C(=O)C(C(=O)OCC)C(c3ccccc3OC)C2)C1c1ccc(OC)c(OC)c1` (stereo not given), the IFI came to 3.49%.
Compound `CC1=C(CCN(CCCN(C)C)CCCN(C)C)C(C)(C)CCC1` had an IFI of 3.94%.
Take `COc1cccc(NC(=O)c2ccc(NCCCC3CCCCCC3)c([N+](=O)[O-])c2)c1`: the IFI came out at 0%.
Take `Clc1ccccc1C[n+]1cc(-c2ccccc2)n2c1CCC2`: the IFI amounted to 4.76%.
As to `COc1ccc(C=NNc2cc(C)nc3ccc(OC)cc23)c(OC)c1`, the IFI came to 7.69%.
In the case of `C=CCNC(=O)c1cc2c(=O)n3ccccc3nc2n(CCc2ccccc2)c1=N`, the IFI was found to be 15.4%.
In turn, `Cn1c(SCC2CCCO2)nnc1C1CCN(C/C=C/c2ccccc2)CC1` (stereo not given) registered an IFI of 1.71%.
Take `FC(F)(F)c1cccc(CNC2CCN(CCc3ccccc3)CC2)c1`: the IFI came to 1.61%.
`CC(C)c1ccc(C=NNC(=O)c2ccccc2O)cc1`: the IFI amounted to 0%.
`Fc1ccccc1CCNc1ncnc2c1[nH]c1ccccc12` gave an IFI of 12.5%.
`CC(Oc1ccc(Cl)cc1Cl)c1nc(-c2ccc(NC(=O)c3cccs3)cc2)no1` (stereo not given) returned an IFI of 4.62%.
In turn, `COc1ccc2nc3cc(Cl)ccc3c(NCCCN(CCCN)CCCCN)c2c1` yielded an IFI of 2.91%.
In the case of `CCC(C)(C)c1ccc(OCCCC[n+]2cccc(C)c2C)c(C(C)(C)CC)c1` it was 8.7%.
To `C=CCc1c(C)nc2ccccc2c1O` belongs 3.08%; to `CCCCCOC(=O)C1=C(C)Nc2ncnn2C1c1cccc([N+](=O)[O-])c1` (stereo not given), 0%.
As for `CCOc1ccc(C(=O)C(C)[n+]2cc(-c3ccc(Cl)cc3)n3c2CCC3)cc1` (stereo not given), the IFI came to 5.41%.
`CCOc1ccccc1NC(=O)C1C(c2ccccc2)=C1c1ccccc1` registered an IFI of 0%.
In the case of `CC(=O)c1ccc(OCCSc2nc3c(N)ncnc3[nH]2)cc1` it was 0%; in that of `COc1cc(C2C(C(=O)OCCc3ccccc3)=C(C)NC3=C2C(=O)CC(c2ccc(Cl)cc2)C3)ccc1OCc1ccccc1` (stereo not given), 4.54%.
In turn, `COc1ccc(OC)c(-c2ccc(O)c(CNCCc3ccccc3)c2)c1` displayed an IFI of 0.848%.
Regarding `Cc1ccccc1[S+]([O-])Cc1ccc(C(=O)N2CCN(c3ccccn3)CC2)o1` (stereo not given), the IFI was 0%.
The compound `CCC(CC)CN1CCC(O)(c2ccc3oc(C(=O)Nc4ccc(OC)cc4)cc3c2)CC1` yielded an IFI of 1.7%.
The compound `COc1ccc2cc(CNC3CCN(Cc4ccccc4)CC3)c(=O)[nH]c2c1` came in with an IFI of 3.77%.
As for `COc1ccc(OC(C)=O)c(C=NNC(=O)C(C)Oc2ccccc2Br)c1` (stereo not given), the IFI is 0%.
In turn, `COc1ccc(C2=C(c3ccc(OC)cc3)C3(c4ccccc4)C(=O)C2(c2ccccc2)C2C(=O)N(c4ccc(C)c(Br)c4)C(=O)C23)cc1` (stereo not given) gave an IFI of 0%.
Compound `O=[N+]([O-])c1ccc(N2CCN(c3nc(NCCc4c[nH]c5ccccc45)c4ccccc4n3)CC2)cc1` had an IFI of 6.17%.
`FC(F)(F)COc1ccc(OCC(F)(F)F)c(-c2ncnn2-c2ccccc2)c1` had an IFI of 1.28%.
`CC(C)CNC(=O)c1cnc(NCCC2CCCN2C)nc1NC1CCCC1` (stereo not given) gave an IFI of 1.91%.
For the compound `Cc1ccc(S(=O)(=O)Nc2nc3n(n2)C(c2ccccc2)C=C(c2ccccc2)N3)cc1` (stereo not given), the IFI was 2.25%.
In the case of `CCc1cccc(NS(=O)(=O)c2ccc3[nH]c(=O)c(=O)[nH]c3c2)c1`, the IFI amounted to 0%.
To `Cc1ccc(NC(=O)N(CCCN(C)C)Cc2cc3cc4c(cc3[nH]c2=O)OCO4)cc1` belongs 0%.
In the case of `O=C1NCCCCC1N(Cc1cccc(Oc2ccccc2)c1)C(=O)c1ccc(F)cc1` (stereo not given) it was 0%; in that of `COC(=O)C1=C(C)Nc2[nH]c(=S)[nH]c(=O)c2C1c1ccccc1F` (stereo not given), 0%; in that of `Cc1ccc(-c2nc3ncccc3o2)cc1NC(=O)COc1ccc(C(C)(C)C)cc1`, 2.38%.
For `Cc1ccc(Nc2nc(NCc3ccco3)c3ccccc3n2)cc1`, the IFI was 7.14%.
In the case of `CCN(CC)CCCN(Cc1cc2cc(OC)c(OC)cc2[nH]c1=O)C(=S)Nc1cccc(Cl)c1` it was 14.4%; in that of `CCOc1ccccc1-n1c(C(C)N(Cc2ccccc2)C(=O)Nc2cccc3ccccc23)nc2ccccc2c1=O` (stereo not given), 1.89%; in that of `CCn1c(SCc2ccc([N+](=O)[O-])cc2)nc2sc3c(c2c1=O)CCN(C)C3`, 4.17%.
`O=C(COc1cccc2ccccc12)NC1CCS(=O)(=O)C1` (stereo not given) registered an IFI of 0%.
As for `CCCCCCOC(=O)C1=C(C)NC(=O)NC1c1ccccc1F` (stereo not given), the IFI is 0.714%.
As to `COC(=O)[C@@H]1C[C@H](NC(=O)c2[nH]c3ccc(Cl)cc3c2-c2ccccc2)CN1Cc1cc(OC)cc(OC)c1`, the IFI is 1.77%.
In the case of `Cc1ccn2c(NC(C)(C)CC(C)(C)C)c(-c3ccccc3OC(=O)c3ccccc3C)nc2c1` it was 3.81%; in that of `COC(=O)[C@@H]1C[C@@H](NC(=O)c2ccccc2F)CN1CC(c1ccccc1)c1ccccc1`, 2.68%.
The compound `O=C1C2C3c4ccccc4C(c4ccccc43)C2C(=O)N1CCO` (stereo not given) displayed an IFI of 0%.
In the case of `CCN(CC)CCCNC(=S)N(CCN(CC)CC)Cc1cc2ccc(C)c(C)c2[nH]c1=O` it was 2.1%; in that of `CN(Cc1ccccc1)C(=O)CCNS(=O)(=O)c1cc(Br)cnc1N`, 0%.
`O=[N+]([O-])c1cccc(CNc2ccc(F)c(Cl)c2)c1` showed an IFI of 0%.
In the case of `COc1cc(/C=C(\C#N)c2nc3ccccc3[nH]2)ccc1OCc1ccc(C)cc1`, the IFI worked out at 5.18%.
Compound `CCCCN1C(=Cc2cccc[n+]2C)Sc2cc(NC(C)=O)ccc21` returned an IFI of 7.69%.
In turn, `CN(C)CCNc1ncnc2c1[nH]c1ccc(Br)cc12` registered an IFI of 13.7%.
`C=CC1CC23CC(C(OC(=O)CCC(=O)O)c4ccnc5ccc(OC)cc45)N2CCC13` (stereo not given) gave an IFI of 5.46%.
`COc1ccc(OC)c(NC(=O)c2cnn3c(C(F)(F)F)cc(-c4ccc(OC)c(OC)c4)nc23)c1` showed an IFI of 2.38%.
To `Cc1ccn(C(=O)NCCNC(=O)Nc2ccc(Cc3ccc(NC(=O)NCCNC(=O)n4ccc(C)n4)cc3)cc2)n1` belongs 0%; to `CCOc1cccc2c1N(C(=O)c1cccc([N+](=O)[O-])c1)C(C)(C)C(=S)C2=C1SC(C(=O)OC)=C(C(=O)OC)S1`, 0%; to `CS(=O)(=O)N1CCCCC1C(=O)NCc1ccc(OC2CCN(CC(c3ccccc3)c3ccccc3)CC2)cc1` (stereo not given), 2.86%.
In the case of `CS(=O)(=O)N(CCc1ccccc1)CC(O)CN1CCC(CNC(=O)NC(c2ccccc2)c2ccccc2)CC1` (stereo not given) it was 2.91%; in that of `O=C(Nc1c(C(=O)Nc2cccc(Cl)c2)oc2ccccc12)c1cc(-c2ccccc2O)n[nH]1`, 0%.
In the case of `CCCCCCCCOC(=O)NCCCCCCNC(=O)OCCCCCCCC` it was 5.88%; in that of `Clc1cccc(CSc2nc(Nc3ccc4c(c3)OCO4)c3ccccc3n2)c1`, 0%; in that of `CCOC(=O)c1ccc(NC(=O)CSc2nc(NCc3ccccc3)c3ccccc3n2)cc1`, 0%.
